Hit rate of the full screen: of about 310,000 compounds, about 14,000 (4.5%) showed an effect of 50% or more. The effect is printed as a negative number. The list shows a part of the results.
These molecules were tested against human ether-à-go-go-related gene (hERG) potassium channel (human, UniProt Q12809) (assay: primary screen, population patch clamp on CHO cells stably expressing hERG).
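Note: peak tail current of the secondary pulse compared with the same well before compound.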

Sequence of human ether-à-go-go-related gene (hERG) potassium channel (Q12809 whole entry, looked up): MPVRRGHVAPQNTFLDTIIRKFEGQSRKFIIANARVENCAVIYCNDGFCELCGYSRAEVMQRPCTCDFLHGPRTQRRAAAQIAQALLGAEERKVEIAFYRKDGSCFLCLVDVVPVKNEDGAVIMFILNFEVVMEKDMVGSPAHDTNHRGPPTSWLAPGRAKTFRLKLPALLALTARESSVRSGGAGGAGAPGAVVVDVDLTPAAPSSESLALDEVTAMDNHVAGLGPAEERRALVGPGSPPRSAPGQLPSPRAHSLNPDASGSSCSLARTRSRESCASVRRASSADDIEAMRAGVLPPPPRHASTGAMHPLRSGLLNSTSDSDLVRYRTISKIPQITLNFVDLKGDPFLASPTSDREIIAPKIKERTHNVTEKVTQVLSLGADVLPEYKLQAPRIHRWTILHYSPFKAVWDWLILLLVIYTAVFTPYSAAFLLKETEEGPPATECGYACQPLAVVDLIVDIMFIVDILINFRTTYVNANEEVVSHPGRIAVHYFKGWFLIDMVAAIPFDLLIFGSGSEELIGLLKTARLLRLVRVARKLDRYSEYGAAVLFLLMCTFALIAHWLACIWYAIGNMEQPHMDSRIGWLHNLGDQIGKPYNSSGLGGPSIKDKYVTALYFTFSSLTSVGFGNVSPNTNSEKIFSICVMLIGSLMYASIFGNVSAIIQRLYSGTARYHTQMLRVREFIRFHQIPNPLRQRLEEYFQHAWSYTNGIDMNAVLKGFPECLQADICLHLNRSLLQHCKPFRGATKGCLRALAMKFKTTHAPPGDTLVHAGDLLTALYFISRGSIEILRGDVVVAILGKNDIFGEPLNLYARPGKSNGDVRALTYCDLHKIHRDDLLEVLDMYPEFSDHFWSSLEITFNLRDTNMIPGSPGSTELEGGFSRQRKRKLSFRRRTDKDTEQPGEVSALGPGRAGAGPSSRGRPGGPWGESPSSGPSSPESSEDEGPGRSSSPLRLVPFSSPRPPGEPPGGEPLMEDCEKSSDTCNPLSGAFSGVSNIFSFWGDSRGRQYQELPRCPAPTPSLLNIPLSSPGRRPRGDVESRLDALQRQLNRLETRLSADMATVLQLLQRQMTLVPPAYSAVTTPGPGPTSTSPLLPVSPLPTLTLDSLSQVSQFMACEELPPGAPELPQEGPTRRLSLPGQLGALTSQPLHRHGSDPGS

| Structure (SMILES) | hERG current change (%, negative = inhibition) at 10uM [%] |
| --- | --- |
| O=C(OCC(=O)N1CCCc2ccccc21)c1ccccc1NCCO | -15.9 |
| C=CCN(C(=O)CCC(=O)Nc1cc(C)on1)C(C(=O)NC(C)(C)CC)c1cccc(OC)c1OC (centres unmarked) | 7.06 |
| CN(Cc1ccc(C(F)(F)F)cc1)C(=O)C1CCC(=O)N(C2CC2)C1 (centres unmarked) | -51.7 |
| O=C(CCSc1ccccc1)NCCSCc1ccccc1 | -30 |
| CSc1ccccc1NC(=O)Nc1ccc(Cl)cc1 | -1.3 |
| CSc1nc(C)c2c(n1)N(c1cccc(C)c1)CC2 | 22.1 |
| CC(NC(=O)COC(=O)c1ccc([N+](=O)[O-])s1)c1ccccc1 (centres unmarked) | -20.8 |
| CCOC(=O)NC(Cc1c[nH]c2ccccc12)C(=O)NCCc1ccc(S(N)(=O)=O)cc1 (centres unmarked) | 24.6 |
| COc1cccc(C(=O)/C=C2\NCCc3cc(OC)c(OC)cc32)c1 | -8.73 |
| CCc1nnc(SCC(=O)N2CCCc3ccccc32)nc1CC | -6.92 |
| O=C(c1cc([N+](=O)[O-])ccc1Cl)N1CCN(c2ccc(F)cc2)CC1 | -27.9 |
| CC1CN(C(=O)c2ccc(COc3ccccc3Cl)o2)CC(C)O1 (centres unmarked) | 3.79 |
| COCCn1c(C)cc(C(=O)COC(=O)c2ccc[nH]c2=O)c1C | 19.2 |
| CCN(CC)S(=O)(=O)c1ccc2[nH]c(=O)cc(C(=O)Nc3cccc(C(C)=O)c3)c2c1 | 14.7 |
| COc1ccc(N2CCCn3c2nc2c3c(=O)n(Cc3ccccc3F)c(=O)n2C)c(OC)c1 | -6.44 |
| COC(=O)/C=C\C(=O)Nc1cccc([N+](=O)[O-])c1 | 19.1 |
| COc1ccccc1CN(C)CC(=O)Nc1ccc(Cl)cc1C(F)(F)F.O=C(O)C(=O)O | 3.8 |
| COc1ccc(NC(=O)c2ccc(CNc3c(NC4CCCCC4)c(=O)c3=O)cc2)c(OC)c1 | 5.92 |
| COc1ccc2oc(C(=O)N3CCN(C/C=C/c4ccccc4)CC3)c(C)c2c1 | -44.8 |

| Structure (SMILES) | hERG current change (%, negative = inhibition) at 10uM [%] |
| --- | --- |
| O=C(CN1C2CCCC1CC(NC(=O)C1CCCCC1)C2)Nc1ccccc1 (centres unmarked) | -27 |
| Cl.O=C(NCCc1ccccn1)c1cc(-c2ccc(Cl)c(Cl)c2Cl)nc2ccccc12 | 13.1 |
| FC(F)(F)c1ccccc1NC(=S)N1CCN(c2ccccn2)CC1 | 5.12 |
| O=C(/C=C/c1cccc(Br)c1)NCc1ccncc1 | -12.4 |
| Cc1ccc(S(=O)(=O)C(c2ccccc2)c2c(C)noc2C)cc1 (centres unmarked) | 8.9 |
| O=C(NCc1ccc2c(c1)OCO2)c1cc(-c2ccccc2Cl)on1 | 11.9 |
| Fc1ccccc1Cc1noc(CN(Cc2ccccn2)CC2CCCO2)n1 (centres unmarked) | 0.0868 |
| CCc1ccc(NC(=O)c2cnccn2)cc1 | 9.23 |
| CCCCn1c(N)c(Br)c(=O)[nH]c1=O | -2.6 |
| COc1cc([N+](=O)[O-])ccc1NC(=O)CCCOc1ccc(C)cc1 | -8.58 |
| COC(=O)c1ccc(Cl)c(NC(=O)CN2CCN(C)CC2)c1 | -15.7 |
| CN(C)C(CNC(=O)c1cccc(S(=O)(=O)N2CC3(C)CC2CC(C)(C)C3)c1)c1ccco1 (centres unmarked) | -14.1 |
| CCOC12NC(=O)CC(=O)N1C(c1ccccc1)=CS2 (centres unmarked) | -11.3 |
| COc1ccc(/C=C2/SC(=O)N(CCCCCC(=O)Nc3ccccc3C(=O)O)C2=S)cc1 | 13.8 |
| Cc1cc(F)ccc1NC(=O)c1cc(S(=O)(=O)N2CCCC2)cn1C | -24.8 |
| CCCCN(CCO)c1ncnc2sc(-c3ccccc3)cc12 | 17.1 |
| CCCC1C2C(=O)N(c3ccccc3)C(=O)C2ON1c1ccccc1 (centres unmarked) | 15.7 |
| COc1ccc(/C=C2\CCc3ccccc3C2=O)cc1Cn1nc(C)cc1C | -6.3 |
| C=C(C)C1CC=C(C)/C(=N/NC(=O)CCC(=O)Nc2ccccc2Cl)C1 (centres unmarked) | 12.9 |

| Structure (SMILES) | hERG current change (%, negative = inhibition) at 10uM [%] |
| --- | --- |
| COC(=O)c1c(N2C(=O)[C@H]3[C@@H](C2=O)[C@]2(C(=O)Nc4ccccc42)N2CCC[C@@H]32)sc(C)c1C | 20.9 |
| CC(NCc1cccc(Cl)c1Cl)C(O)c1ccccc1.Cl (centres unmarked) | -7.53 |
| c1csc(C(c2nnnn2C2CCCC2)N2CCOCC2)c1 (centres unmarked) | 4.77 |
| CCN(CC(=O)NCc1cccs1)C(=O)/C=C/c1ccc(OC)c(OC)c1 | -23.5 |
| CCSc1nnc(N(CCC#N)CCC#N)s1 | 9.09 |
| Cc1ccc(S(=O)(=O)N2CCN(Cc3ccco3)CC2)cc1C | 5.08 |
| COc1ccc(CN2CCNC(=O)C2CC(=O)N2CCCN(C(C)=O)CC2)cc1OC (centres unmarked) | 25.5 |
| Cn1cc(C(=O)NCc2cccs2)c(=O)c2cc(S(=O)(=O)N3CCCC3)ccc21 | -17.2 |
| CCNC(=O)c1ccc(NC(=O)CC2SC(N3CCCCC3)=NC2=O)cc1 (centres unmarked) | -7.22 |
| O=C(O)c1ccc(NCc2nc3ccccc3n2Cc2ccccc2)cc1 | -4.61 |
| CN(Cc1ccccc1)C(=O)C1CCN(S(=O)(=O)c2ccc(-n3cnnn3)cc2)CC1 | -75.2 |
| CCOC(=O)NC(Nc1sc2c(c1C(=O)OC)CCN(C)C2)(C(F)(F)F)C(F)(F)F | -13.2 |
| O=C(Cc1cccs1)Nc1ccccc1NC(=O)Cc1cccs1 | 9.44 |
| CC(C)CCOc1ccc(C(=O)N2CCCC2C(=O)O)cc1 (centres unmarked) | 7.63 |
| CCOc1ccc(-n2c(C)c(C(C)=O)c3cc(OC(C)=O)ccc32)cc1 | 11 |
| CC(C)Cn1c(SCC(=O)NCc2ccco2)nnc1-c1ccncc1 | 17.8 |
| Cc1nn(CC(=O)NCc2cccnc2)c(=O)c2ccccc12 | 11.9 |
| CCC(c1nnnn1Cc1ccc2c(c1)OCO2)N1CCN(c2ccccc2)CC1 (centres unmarked) | -9.08 |

Reference: PMC4336329 (PLoS ONE, 2015)
